Measured values as given in PMC2576245.
These are yes or no findings as the source states them, for the method shown. For some of these results: In cells and extracts the contact can be indirect. Some results given as binding are weak or reduced against the parent protein; the word gives no strength. For some of these results: Tags and fused reporters may be left off the sequences shown.

Sequences of proteins named here, by UniProt entry; tags and fusion partners are left off. Residues count along the entry.
UniProt P05556: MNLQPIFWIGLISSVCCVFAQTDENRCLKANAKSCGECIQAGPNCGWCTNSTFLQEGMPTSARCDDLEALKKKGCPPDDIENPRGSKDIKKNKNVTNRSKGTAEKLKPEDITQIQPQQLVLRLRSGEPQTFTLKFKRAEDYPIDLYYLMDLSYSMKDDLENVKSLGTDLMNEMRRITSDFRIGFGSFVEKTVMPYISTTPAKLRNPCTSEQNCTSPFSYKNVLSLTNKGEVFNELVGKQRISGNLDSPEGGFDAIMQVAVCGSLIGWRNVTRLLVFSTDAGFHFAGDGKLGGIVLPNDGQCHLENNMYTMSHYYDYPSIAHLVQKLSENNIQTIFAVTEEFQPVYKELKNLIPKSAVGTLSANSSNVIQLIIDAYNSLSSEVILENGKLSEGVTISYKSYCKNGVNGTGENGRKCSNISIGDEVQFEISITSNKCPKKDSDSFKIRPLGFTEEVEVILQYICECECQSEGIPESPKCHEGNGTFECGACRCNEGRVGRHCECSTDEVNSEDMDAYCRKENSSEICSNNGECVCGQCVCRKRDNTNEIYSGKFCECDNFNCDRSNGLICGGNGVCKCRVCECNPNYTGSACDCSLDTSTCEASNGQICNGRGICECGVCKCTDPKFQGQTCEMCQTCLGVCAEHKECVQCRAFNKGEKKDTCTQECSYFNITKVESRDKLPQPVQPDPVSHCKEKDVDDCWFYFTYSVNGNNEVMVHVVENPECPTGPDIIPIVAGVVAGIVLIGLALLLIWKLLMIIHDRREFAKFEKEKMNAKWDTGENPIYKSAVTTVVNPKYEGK
UniProt P49134, residues 21-799: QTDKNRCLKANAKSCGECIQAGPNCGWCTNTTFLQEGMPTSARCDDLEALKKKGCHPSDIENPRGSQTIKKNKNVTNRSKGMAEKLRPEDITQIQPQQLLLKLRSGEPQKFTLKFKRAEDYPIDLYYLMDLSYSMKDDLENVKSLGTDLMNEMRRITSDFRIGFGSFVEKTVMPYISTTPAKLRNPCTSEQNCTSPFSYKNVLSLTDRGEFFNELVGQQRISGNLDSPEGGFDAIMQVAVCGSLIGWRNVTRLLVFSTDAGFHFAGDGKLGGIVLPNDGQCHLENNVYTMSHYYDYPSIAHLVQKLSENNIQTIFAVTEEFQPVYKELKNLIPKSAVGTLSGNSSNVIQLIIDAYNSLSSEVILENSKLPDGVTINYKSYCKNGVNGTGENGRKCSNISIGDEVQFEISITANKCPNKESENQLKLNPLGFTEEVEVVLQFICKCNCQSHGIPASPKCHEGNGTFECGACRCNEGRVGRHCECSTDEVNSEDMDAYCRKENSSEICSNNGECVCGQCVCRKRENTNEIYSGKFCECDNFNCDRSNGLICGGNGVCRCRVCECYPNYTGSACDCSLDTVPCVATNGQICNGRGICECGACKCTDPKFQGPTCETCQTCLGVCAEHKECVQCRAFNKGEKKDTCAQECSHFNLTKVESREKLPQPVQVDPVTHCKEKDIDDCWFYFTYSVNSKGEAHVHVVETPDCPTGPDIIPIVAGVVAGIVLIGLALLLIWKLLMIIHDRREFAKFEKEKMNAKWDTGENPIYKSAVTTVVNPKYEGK
UniProt P09055, residues 21-728: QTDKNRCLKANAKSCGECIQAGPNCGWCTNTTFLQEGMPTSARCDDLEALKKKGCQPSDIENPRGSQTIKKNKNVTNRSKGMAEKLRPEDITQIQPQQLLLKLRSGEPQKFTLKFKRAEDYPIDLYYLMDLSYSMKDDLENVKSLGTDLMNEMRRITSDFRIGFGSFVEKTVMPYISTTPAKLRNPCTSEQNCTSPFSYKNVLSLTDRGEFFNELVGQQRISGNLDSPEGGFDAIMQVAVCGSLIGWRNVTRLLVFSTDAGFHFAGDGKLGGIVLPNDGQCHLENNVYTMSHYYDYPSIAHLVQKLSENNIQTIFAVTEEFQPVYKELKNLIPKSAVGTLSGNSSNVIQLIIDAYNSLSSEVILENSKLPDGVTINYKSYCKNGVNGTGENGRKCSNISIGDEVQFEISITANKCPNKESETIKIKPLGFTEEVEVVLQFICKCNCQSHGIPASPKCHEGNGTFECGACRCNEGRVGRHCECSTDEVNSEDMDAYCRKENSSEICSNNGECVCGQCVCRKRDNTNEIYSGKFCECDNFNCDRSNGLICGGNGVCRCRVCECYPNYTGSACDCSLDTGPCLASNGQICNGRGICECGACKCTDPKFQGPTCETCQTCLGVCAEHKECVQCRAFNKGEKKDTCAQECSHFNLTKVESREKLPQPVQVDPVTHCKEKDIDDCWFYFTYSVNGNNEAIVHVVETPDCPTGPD
UniProt P08138, residues 29-427: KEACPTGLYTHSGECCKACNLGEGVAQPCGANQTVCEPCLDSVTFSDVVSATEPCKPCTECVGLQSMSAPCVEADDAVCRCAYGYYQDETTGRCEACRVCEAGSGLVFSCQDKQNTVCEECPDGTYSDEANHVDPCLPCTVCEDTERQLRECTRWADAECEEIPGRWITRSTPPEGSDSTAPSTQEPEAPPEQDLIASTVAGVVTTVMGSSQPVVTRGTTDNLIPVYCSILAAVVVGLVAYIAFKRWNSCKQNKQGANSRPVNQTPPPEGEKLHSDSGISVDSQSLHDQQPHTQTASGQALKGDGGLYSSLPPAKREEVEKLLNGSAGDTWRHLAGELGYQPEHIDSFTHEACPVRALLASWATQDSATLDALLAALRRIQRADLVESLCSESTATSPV
UniProt Q96FE5, residues 42-620: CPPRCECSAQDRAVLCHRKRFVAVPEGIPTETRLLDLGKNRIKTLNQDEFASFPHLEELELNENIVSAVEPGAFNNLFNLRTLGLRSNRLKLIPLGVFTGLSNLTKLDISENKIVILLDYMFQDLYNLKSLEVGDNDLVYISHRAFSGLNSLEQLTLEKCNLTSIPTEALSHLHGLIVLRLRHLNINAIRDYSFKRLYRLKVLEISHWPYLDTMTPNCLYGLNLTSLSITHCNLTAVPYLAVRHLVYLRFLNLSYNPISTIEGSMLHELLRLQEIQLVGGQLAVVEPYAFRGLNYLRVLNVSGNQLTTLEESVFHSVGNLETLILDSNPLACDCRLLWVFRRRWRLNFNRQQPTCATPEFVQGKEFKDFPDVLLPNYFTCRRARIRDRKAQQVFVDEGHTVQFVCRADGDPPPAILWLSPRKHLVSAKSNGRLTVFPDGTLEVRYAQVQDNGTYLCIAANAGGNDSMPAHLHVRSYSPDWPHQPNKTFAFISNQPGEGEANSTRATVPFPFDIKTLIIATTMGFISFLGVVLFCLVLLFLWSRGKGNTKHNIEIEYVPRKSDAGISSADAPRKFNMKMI

Assays:
[1] = target: β1-integrin, endogenous in HEK293 cells (human (endogenous in HEK293)) (UniProt P05556); experiment: co-IP; HEK293 cells transfected with NgR, p75, TROY or Lingo-1, stimulated with MAG (5 μg/ml) or medium; immunoprecipitated with anti-β1-integrin antibodies and blotted for the respective component
[2] = target: β1-integrin, endogenous in primary hippocampal neurons (rat (endogenous in primary hippocampal neurons)) (UniProt P49134); experiment: co-IP; primary hippocampal cultures treated with wild-type MAG-Fc, mutant MAG-Fc (KGE) or native Fc fragment (2.0 μg/ml MAG), lysed in 1% Triton X-100, 1% Nonidet P-40, 150 mM NaCl, 10 mM Tris pH 7.4; immunoprecipitated with antibodies against β1-integrin and blotted for human Fc, or vice versa; also after PI-PLC (1 unit/ml, 30 min, 37°C; MAG 1 μg/ml, 15 min); only the binder purified
[3] = target: GST-β1 (ECD) fusion protein, GST fused to the extracellular domain of β1-integrin (mouse) (UniProt P09055); experiment: pull-down; purified GST-β1 (ECD) on glutathione beads; native Fc fragment (2 μg/ml) or MAG-Fc (2 μg/ml) added overnight at 4°C; blot for the Fc fragment; cell free; both purified
[4] = target: β1-integrin, endogenous in HEK293 cells (human (endogenous in HEK293)) (UniProt P05556); experiment: co-IP; HEK293 cells (transfected as in a4) stimulated with MAG (5 μg/ml); immunoprecipitated with anti-β1-integrin antibodies, reblotted for Fc; only the binder purified

p75 (from UniProt P08138 29-427) (receptor)
binding [1]: no binding

Lingo-1 (from UniProt Q96FE5 42-620) (receptor)
binding [1]: no binding

B1: MAG-Fc, recombinant MAG consisting of the MAG extracellular domain fused to human Fc (wild type, RGD) (Fc fusion, UniProt P07722 20-516)
chain: GHWGAWMPSSISAFEGTCVSIPCRFDFPDELRPAVVHGVWYFNSPYPKNYPPVVFKSRTQVVHESFQGRSRLLGDLGLRNCTLLLSTLSPELGGKYYFRGDLGGYNQYTFSEHSVLDIINTPNIVVPPEVVAGTEVEVSCMVPDNCPELRPELSWLGHEGLGEPTVLGRLREDEGTWVQVSLLHFVPTREANGHRLGCQAAFPNTTLQFEGYASLDVKYPPVIVEMNSSVEAIEGSHVSLLCGADSNPPPLLTWMRDGMVLREAVAESLYLDLEEVTPAEDGIYACLAENAYGQDNRTVELSVMYAPWKPTVNGTVVAVEGETVSILCSTQSNPDPILTIFKEKQILATVIYESQLQLELPAVTPEDDGEYWCVAENQYGQRATAFNLSVEFAPIILLESHCAAARDTVQCLCVVKSNPEPSVAFELPSRNVTVNETEREFVYSERSGLLLTSILTLRGQAQAPPRVICTSRNLYGTQSLELPFQGAHRLMWAKIGP
binding [2]: binds | binding [3]: binds | binding [4]: binds

B2: Nogo-66 receptor (NgR) (receptor, UniProt Q9BZR6 27-447)
chain: CPGACVCYNEPKVTTSCPQQGLQAVPVGIPAASQRIFLHGNRISHVPAASFRACRNLTILWLHSNVLARIDAAAFTGLALLEQLDLSDNAQLRSVDPATFHGLGRLHTLHLDRCGLQELGPGLFRGLAALQYLYLQDNALQALPDDTFRDLGNLTHLFLHGNRISSVPERAFRGLHSLDRLLLHQNRVAHVHPHAFRDLGRLMTLYLFANNLSALPTEALAPLRALQYLRLNDNPWVCDCRARPLWAWLQKFRGSSSEVPCSLPQRLAGRDLKRLAANDLQGCAVATGPYHPIWTGRATDEEPLGLPKCCQPDAADKASVLEPGRPASAGNALKGRVPPGDSPPGNGSGPRHINDSPFGTLPGSAEPPLTAVRPEGSEPPGFPTSGPRRRPGCSRKNRTRSHCRLGQAGSGGGGTGDSEGS
binding [1]: no binding

B3: TROY (receptor, UniProt Q9NS68 30-423)
chain: ESGDCRQQEFRDRSGNCVPCNQCGPGMELSKECGFGYGEDAQCVTCRLHRFKEDWGFQKCKPCLDCAVVNRFQKANCSATSDAICGDCLPGFYRKTKLVGFQDMECVPCGDPPPPYEPHCASKVNLVKIASTASSPRDTALAAVICSALATVLLALLILCVIYCKRQFMEKKPSWSLRSQDIQYNGSELSCFDRPQLHEYAHRACCQCRRDSVQTCGPVRLLPSMCCEEACSPNPATLGCGVHSAASLQARNAGPAGEMVPTFFGSLTQSICGEFSDAWPLMQNPMGGDNISFCDSYPELTGEDIHSLNPELESSTSLDSNSSQDLVGGAVPVQSHSENFTAATDLSRYNNTLVESASTQDALTMRSQLDQESGAVIHPATQTSLQVRQRLGSL
binding [1]: no binding
